The whole screen tested about 50,000 compounds, of which about 800 (1.6%) showed an effect of 50% or more. The list shows a part of the results.

The values that follow come from PubChem BioAssay AID1240 (Sanford-Burnham Center for Chemical Genomics, 2008).

This experiment concerns the target Bcl-2-like protein 10 (Homo sapiens) (UniProt Q9HD36). As to the kind of experiment: TR3 peptide-Bcl-B binding displacers, biochemical primary FP assay, phenotype converters (AID 1240).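 Further: 0% = Bcl-B with tracer peptide and DMSO and 100% = tracer peptide lacking Bcl-B.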 The note with it: GST-Bcl-B / FITC-TR3 peptide fluorescence polarization; stronger effect = higher value; compound at 3.75 mg/L.
Sequence of UniProt Q9HD36 (Q9HD36 whole entry, looked up): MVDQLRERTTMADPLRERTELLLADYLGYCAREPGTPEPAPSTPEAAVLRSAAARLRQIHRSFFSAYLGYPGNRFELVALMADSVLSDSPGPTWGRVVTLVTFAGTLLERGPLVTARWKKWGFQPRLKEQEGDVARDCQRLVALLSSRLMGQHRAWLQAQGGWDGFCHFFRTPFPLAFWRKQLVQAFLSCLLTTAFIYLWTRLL
In the case of `COc1ccc(OC)c(/C=C/C(=O)c2ccc(Br)cc2)c1`, the displacement was found to be 9%.

On to `Cc1cccc(C)c1OCCCCNCCO`, for which the displacement came to 0.1%.

Regarding `CC12CC3CC(C1)CC(CNC(=S)Nc1ccccc1)(C3)C2`, the displacement amounted to 11.3%.

With `O=c1nc(/C=C/c2cc3c(cc2[N+](=O)[O-])OCO3)cc(C(F)(F)F)[nH]1`, the displacement turned out to be 30.4%.

Turning to `Cc1c(C(=O)OC(C)C)sc(NC(=O)c2ccccc2F)c1C#N`, the displacement is -6.8%.

For the compound `COc1ccc(OCCn2cc(C=O)c3ccccc32)cc1`, the displacement amounted to 13.5%.

On to `Cc1cccc(OCCOc2ccc(Cl)cc2/C=C2/SC(=S)N(C)C2=O)c1`, for which the displacement is 6.5%.

In the case of `S=C(NCc1ccccc1)NC1CC2CCC1C2` (stereo unspecified), the displacement came to 7.1%.

With `CC1=NN(c2nc(-c3ccc(Cl)cc3)cs2)C(=O)/C1=C\c1ccc2c(c1)OCO2`, the displacement stood at 17.1%.

In the case of `O=C(N/N=C/c1ccc(-c2ccccc2[N+](=O)[O-])o1)c1ccc2ccccc2c1O`, the displacement stood at 13.3%.

On to `Oc1ccc(N=Nc2ccc(Cl)cc2)c2cccnc12`, for which the displacement came to 3%.

For `CN(C)c1ccc(C(=O)N2CCN(c3ccccc3)CC2)cc1`, the displacement was found to be 9.2%.

For `O=C(CN1CCN(C(c2ccccc2)c2ccccc2)CC1)CN1C(=O)c2ccccc2C1=O`, the displacement is -6.8%.

`Cc1ccc(/C=C2\CCC/C(=C\c3ccc(C)o3)C2=O)o1`: the displacement was determined as 15.2%.

`CCOc1ccccc1NC(=S)NCc1ccccc1`: the displacement is 3.9%.

With `CCOc1c(C=C(C#N)C#N)c2ccccc2n1CC`, the displacement worked out at 0.4%.

Take `Cc1ccc(CN2CCN(S(C)(=O)=O)CC2)cc1`: the displacement was 13.2%.

On to `CC(=O)Nc1ccc(S(=O)(=O)Nc2ncccn2)cc1`, for which the displacement is -5.5%.

In the case of `CC(C)Cn1nc(-c2ccccc2)c2ccccc2c1=O`, the displacement was -4.1%.

For the compound `CC(=O)C(=Nc1ccccc1Cl)NNc1cccc(Cl)c1C`, the displacement was determined as 12.6%.

Take `Cc1ccc(S(=O)(=O)N2CCN(Cc3cccnc3)CC2)cc1`: the displacement was 2%.

Turning to `Cc1ccc(C2Nc3ccccc3C(=O)N2c2ccccc2)cc1` (stereo unspecified), the displacement worked out at 10.9%.

`COC(=O)c1ccc(Nc2nnc(-c3ccc(C(=O)NCCO)cc3)c3ccccc23)cc1`: the displacement amounted to 4.9%.

With `COc1cccc(OCCOc2ccc(/C=C3/SC(=S)N(c4ccccc4)C3=O)cc2OC)c1`, the displacement is 6.1%.

As for `O=C(Nc1ccc2nn(-c3ccccc3)nc2c1)c1cccc(I)c1`, the displacement is 10.4%.

`O=[N+]([O-])c1ccccc1N/C(=N/S(=O)(=O)c1ccccc1)c1ccccc1`: the displacement was 14.7%.

Take `O=C(/C=C/c1ccc(Cl)cc1)N1CCN(CCN2C(=O)c3cccc4cccc(c34)C2=O)CC1`: the displacement is -8%.

Take `O=C(NNC(=O)c1cccc(O)c1)c1ccc(Br)cc1`: the displacement stood at 3.1%.

For the compound `CC(=O)Nc1ccccc1NC(=O)/C=C/c1ccccc1`, the displacement worked out at 6.5%.

`CC(C)(C)N1C(=O)c2ccc(C(=O)Nc3cccc(C(=O)O)c3)cc2C1=O`: the displacement amounted to 13.5%.

As for `CC(=O)CSc1nnnn1-c1ccccc1`, the displacement was found to be 2.1%.

As for `COc1cc(/C=N\NC(=O)CNc2ccc(C)cc2)cc(Br)c1O`, the displacement was 11.8%.

In the case of `Cc1[nH]c2ccccc2c1C=Nc1cccc([N+](=O)[O-])c1C`, the displacement turned out to be 9.8%.

`Cc1ccc(C(=O)Nc2cccc(NC(=O)COc3ccc(Br)cc3)c2)cc1`: the displacement stood at 0.9%.

With `Cc1cccc(CN2CCN(S(C)(=O)=O)CC2)c1`, the displacement was 9.4%.

On to `COc1cc2cc(C(N)=O)c(N)nc2cc1OC`, for which the displacement worked out at 9%.

As to `CN(C)S(=O)(=O)c1cc(S(=O)(=O)N(C)C)c2cccc3c2c1NC3=O`, the displacement was determined as 0.1%.

Take `O=C(O)c1ccccc1SC1CC(=O)N(c2ccc([N+](=O)[O-])cc2)C1=O` (stereo unspecified): the displacement is 2.5%.

Take `CC(C)=CCCC1=CCC2(C)C(=O)NNC(=O)C2C1` (stereo unspecified): the displacement was determined as 7.6%.

Regarding `Cc1ccc(C(=O)Nc2nc3ccccc3n2Cc2ccccc2Cl)cc1`, the displacement was determined as 9.4%.

Take `O=C1/C(=C\c2cccc(C(F)(F)F)c2)SC(=S)N1c1cccc(Cl)c1`: the displacement amounted to 14.5%.

On to `O=C(c1sc2ccccc2c1Cl)N1CCN(c2cccc(C(F)(F)F)c2)CC1`, for which the displacement is -9.9%.

As to `Cc1ccc2c(C)nc(Nc3nc(-c4ccccc4)cc(=O)[nH]3)nc2c1`, the displacement is -3.6%.

Regarding `O=C(CSc1ccc(Cl)cc1Cl)Nc1cc(Cl)ccc1Cl`, the displacement was determined as 10%.

In the case of `COc1ccc(OC)c(NC(=O)C(=O)NCc2ccncc2)c1`, the displacement was 13.6%.

Regarding `O=C(/C=C/c1ccc(-c2ccccc2[N+](=O)[O-])o1)Nc1ccc(O)c(-c2nc3ccccc3o2)c1`, the displacement is -4.1%.

Regarding `CCC/C(C(=O)OCC)=C(/C)NCCN/C(C)=C(\CCC)C(=O)OCC`, the displacement amounted to 11%.

`Cc1c(NC(=O)c2cccc3ccccc23)c(=O)n(-c2ccccc2)n1C`: the displacement is 1.8%.

As for `Cc1ccc(C(=O)Nc2cc(-c3cccc(C)c3)[nH]n2)cc1`, the displacement was 6.2%.

Turning to `CCCOc1ccc(C(=O)Nc2cccc(OC)c2)cc1`, the displacement amounted to 16.1%.

Consider `CC(=C(C#N)C#N)c1ccc2c(c1)OCO2`, for which the displacement stood at 14.6%.

As for `O=Cc1ccc(-c2nc3c4ccccc4ccn3c2C=O)o1`, the displacement is 3.7%.

`C#CCSc1nncn1C(=O)/C=C/c1ccccc1`: the displacement is -9.6%.

Consider `CC(=O)Oc1ccc2nc(-c3ccc(C)c([N+](=O)[O-])c3)oc(=O)c2c1`, for which the displacement came out at 7.1%.

Consider `CCSC1(SCC)N=C(N)C2(C#N)C(c3ccccc3)NC(C)=CC12C#N` (stereo unspecified), for which the displacement is -3.3%.

In the case of `O=C(NC1CC1)c1ccc(C2SCC(=O)N2Cc2ccccc2)cc1` (stereo unspecified), the displacement turned out to be 5.1%.

Regarding `C[n+]1cccc(C(=O)NCCOC(=O)c2ccc(F)cc2)c1`, the displacement turned out to be 2.6%.

`CCCc1ccc(OCC(=O)Nc2cccc(F)c2)cc1`: the displacement was -4.4%.

`COc1cc(OC)cc(C(=O)N2CCN(C(=O)COc3ccc(Cl)cc3)CC2)c1`: the displacement is -23.1%.

Consider `O=C(N/N=C/c1c2ccccc2cc2ccccc12)c1cccc([N+](=O)[O-])c1`, for which the displacement was 11%.

On to `COc1cccc(NC(=O)CN(c2ccc(OC)cc2OC)S(=O)(=O)c2ccc(C)cc2)c1`, for which the displacement is 6.2%.

Regarding `NC(=O)c1ccc(NC(=O)CCC(=O)O)cc1`, the displacement was 4.8%.

Regarding `CC(C)Cn1c(CCN2C(=O)c3ccccc3C2=O)nc2ccccc2c1=O`, the displacement turned out to be 7.6%.

As to `Cc1cccc(OCC(=O)Nc2ccccc2CO)c1`, the displacement was -4.7%.

Regarding `COc1cccc(Nc2nc(C)c([N+](=O)[O-])c(Nc3cccc(OC)c3)n2)c1`, the displacement amounted to 6%.

With `CC1=NN(C(=O)c2cccc(C)c2O)C(O)(c2ccc(Cl)cc2)C1` (stereo unspecified), the displacement is -2%.

Consider `COc1ccc([N+](=O)[O-])cc1NC(=O)/C=C/c1ccccc1`, for which the displacement came out at 7.1%.

Consider `O=C(O)c1ccc(-c2cc([N+](=O)[O-])ccc2Cl)o1`, for which the displacement worked out at 16.9%.

For the compound `Cc1nnc(NC(=O)c2cc(-c3ccc(Cl)cc3)nc3ccccc23)s1`, the displacement is 26.1%.

With `COc1ccc(CCNC(=O)/C=C/c2ccc(C)cc2)cc1`, the displacement turned out to be 7.5%.

In the case of `Cn1c2c(c(=O)n(C)c1=O)C(c1ccc(Br)cc1)C1=C(N2)c2ccccc2C1=O` (stereo unspecified), the displacement was -10.4%.
